{"source": "the supplement of paper PMC8728848", "binders": {"B1": {"name": "CVNH3T (Magnaporthe grisea) (protein)", "chain": "GSHIGPYGNYAGNFSGSSRDICLDGARLRAECRRGDGGYSTSVIDLNRYLSNDNGHFRWVSGGGGGGGTATVTVQQGDTLRDIGRRFDCDFHEIARRNNIQNEDLIYPGQVLQVPTKGGSGGGAGNFWDSARDVRLVDGGKVLEAELRYSGGWNRSRIYLDEHIGNRNGELIHC"}}, "assay_in_all_cases": "glycan array binding signal (z-score within array); higher = stronger binding", "settings_in_all_cases": "glycan notation: IUPAC condensed, linker removed", "key": {"Fuc(a1-2)Gal": {"biological_target": "Fuc(a1-2)Gal", "procedure,_shortened": "(§1)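 Glycan array binding is given as a within-array Z-score, which can be read as non-binding when negative. The arrays, 3228 of them, came from the Consortium for Functional Glycomics database and were retained only where the protein sequence was available. Z-scores were averaged across arrays of the same protein sequence at different concentrations or buffers and across linkers.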"}, "Fuc(a1-2)Gal(b1-3)GalNAc": {"biological_target": "Fuc(a1-2)Gal(b1-3)GalNAc", "procedure,_shortened": "as §1"}, "[1]": {"biological_target": "Fuc(a1-2)Gal(b1-3)GalNAc(b1-3)Gal", "procedure,_shortened": "as §1"}, "[2]": {"biological_target": "Fuc(a1-2)Gal(b1-3)GalNAc(b1-3)Gal(a1-4)Gal(b1-4)Glc", "procedure,_shortened": "as §1"}, "[3]": {"biological_target": "Fuc(a1-2)Gal(b1-3)GalNAc(b1-3)Gal(b1-4)Glc", "procedure,_shortened": "as §1"}, "[4]": {"biological_target": "Fuc(a1-2)Gal(b1-3)GalNAc(b1-4)[Neu5Ac(a2-3)]Gal(b1-4)Glc", "procedure,_shortened": "as §1"}, "[5]": {"biological_target": "Fuc(a1-2)Gal(b1-3)[Fuc(a1-4)]GlcNAc", "procedure,_shortened": "as §1"}, "Fuc(a1-2)Gal(b1-4)Glc": {"biological_target": "Fuc(a1-2)Gal(b1-4)Glc", "procedure,_shortened": "as §1"}, "Fuc(a1-2)Gal(b1-4)GlcNAc": {"biological_target": "Fuc(a1-2)Gal(b1-4)GlcNAc", "procedure,_shortened": "as §1"}, "[6]": {"biological_target": "Fuc(a1-2)Gal(b1-4)GlcNAc(b1-3)Gal(b1-4)GlcNAc", "procedure,_shortened": "as §1"}, "[7]": {"biological_target": "Fuc(a1-2)Gal(b1-4)GlcNAc(b1-3)Gal(b1-4)GlcNAc(b1-3)Gal(b1-4)GlcNAc", "procedure,_shortened": "as §1"}, "[8]": {"biological_target": "Fuc(a1-2)Gal(b1-4)[Fuc(a1-3)]GalNAc(b1-3)Gal(b1-4)[Fuc(a1-3)]GlcNAc", "procedure,_shortened": "as §1"}, "[9]": {"biological_target": "Fuc(a1-2)Gal(b1-4)[Fuc(a1-3)]GalNAc(b1-3)Gal(b1-4)[Fuc(a1-3)]GlcNAc(b1-3)Gal(b1-4)[Fuc(a1-3)]GalNAc", "procedure,_shortened": "as §1"}, "[10]": {"biological_target": "Fuc(a1-2)Gal(b1-4)[Fuc(a1-3)]GlcNAc", "procedure,_shortened": "as §1"}, "Fuc(a1-2)GlcNAc": {"biological_target": "Fuc(a1-2)GlcNAc", "procedure,_shortened": "as §1"}, "Fuc(a1-2)[Gal(a1-3)]Gal": {"biological_target": "Fuc(a1-2)[Gal(a1-3)]Gal", "procedure,_shortened": "as §1"}, "[11]": {"biological_target": "Fuc(a1-2)[Gal(a1-3)]Gal(b1-3)GlcNAc", "procedure,_shortened": "as §1"}, "[12]": {"biological_target": "Fuc(a1-2)[Gal(a1-3)]Gal(b1-4)Glc", "procedure,_shortened": "as §1"}, "[13]": {"biological_target": "Fuc(a1-2)[Gal(a1-3)]Gal(b1-4)GlcNAc", "procedure,_shortened": "as §1"}, "[14]": {"biological_target": "Fuc(a1-2)[Gal(a1-3)]Gal(b1-4)[Fuc(a1-3)]GlcNAc", "procedure,_shortened": "as §1"}, "[15]": {"biological_target": "Fuc(a1-2)[Gal(a1-4)]Gal(b1-4)GalNAc", "procedure,_shortened": "as §1"}, "[16]": {"biological_target": "Fuc(a1-2)[GalNAc(a1-3)]Gal", "procedure,_shortened": "as §1"}, "[17]": {"biological_target": "Fuc(a1-2)[GalNAc(a1-3)]Gal(b1-3)GlcNAc", "procedure,_shortened": "as §1"}, "[18]": {"biological_target": "Fuc(a1-2)[GalNAc(a1-3)]Gal(b1-4)Glc", "procedure,_shortened": "as §1"}, "[19]": {"biological_target": "Fuc(a1-2)[GalNAc(a1-3)]Gal(b1-4)GlcNAc", "procedure,_shortened": "as §1"}, "[20]": {"biological_target": "Fuc(a1-2)[GalNAc(a1-3)]Gal(b1-4)[Fuc(a1-3)]GlcNAc", "procedure,_shortened": "as §1"}, "[21]": {"biological_target": "Fuc(a1-2)[GalNAc(a1-4)]Gal(b1-4)GlcNAc", "procedure,_shortened": "as §1"}, "Fuc(a1-3)GlcNAc": {"biological_target": "Fuc(a1-3)GlcNAc", "procedure,_shortened": "as §1"}, "[22]": {"biological_target": "Fuc(a1-3)[Gal(b1-4)]GlcNAc", "procedure,_shortened": "as §1"}, "[23]": {"biological_target": "Fuc(a1-3)[Gal(b1-4)]GlcNAc(b1-4)Gal(b1-4)[Fuc(a1-3)]GlcNAc", "procedure,_shortened": "as §1"}}, "note": "Some of the results follow.", "data": [{"binder": "B1", "values": [{"measurement": "glycan array binding signal (z-score)", "setting": "Fuc(a1-2)Gal", "value": -0.223}, {"measurement": "glycan array binding signal (z-score)", "setting": "Fuc(a1-2)Gal(b1-3)GalNAc", "value": -0.142}, {"measurement": "glycan array binding signal (z-score)", "setting": "[1]", "value": -0.216}, {"measurement": "glycan array binding signal (z-score)", "setting": "[2]", "value": 4.94}, {"measurement": "glycan array binding signal (z-score)", "setting": "[3]", "value": -0.17}, {"measurement": "glycan array binding signal (z-score)", "setting": "[4]", "value": -0.228}, {"measurement": "glycan array binding signal (z-score)", "setting": "[5]", "value": -0.225}, {"measurement": "glycan array binding signal (z-score)", "setting": "Fuc(a1-2)Gal(b1-4)Glc", "value": -0.233}, {"measurement": "glycan array binding signal (z-score)", "setting": "Fuc(a1-2)Gal(b1-4)GlcNAc", "value": -0.234}, {"measurement": "glycan array binding signal (z-score)", "setting": "[6]", "value": -0.228}, {"measurement": "glycan array binding signal (z-score)", "setting": "[7]", "value": -0.212}, {"measurement": "glycan array binding signal (z-score)", "setting": "[8]", "value": -0.19}, {"measurement": "glycan array binding signal (z-score)", "setting": "[9]", "value": -0.218}, {"measurement": "glycan array binding signal (z-score)", "setting": "[10]", "value": -0.196}, {"measurement": "glycan array binding signal (z-score)", "setting": "Fuc(a1-2)GlcNAc", "value": -0.216}, {"measurement": "glycan array binding signal (z-score)", "setting": "Fuc(a1-2)[Gal(a1-3)]Gal", "value": -0.217}, {"measurement": "glycan array binding signal (z-score)", "setting": "[11]", "value": 0.849}, {"measurement": "glycan array binding signal (z-score)", "setting": "[12]", "value": -0.215}, {"measurement": "glycan array binding signal (z-score)", "setting": "[13]", "value": -0.23}, {"measurement": "glycan array binding signal (z-score)", "setting": "[14]", "value": -0.226}, {"measurement": "glycan array binding signal (z-score)", "setting": "[15]", "value": -0.199}, {"measurement": "glycan array binding signal (z-score)", "setting": "[16]", "value": -0.138}, {"measurement": "glycan array binding signal (z-score)", "setting": "[17]", "value": -0.07}, {"measurement": "glycan array binding signal (z-score)", "setting": "[18]", "value": 0.015}, {"measurement": "glycan array binding signal (z-score)", "setting": "[19]", "value": -0.053}, {"measurement": "glycan array binding signal (z-score)", "setting": "[20]", "value": -0.058}, {"measurement": "glycan array binding signal (z-score)", "setting": "[21]", "value": -0.232}, {"measurement": "glycan array binding signal (z-score)", "setting": "Fuc(a1-3)GlcNAc", "value": -0.235}, {"measurement": "glycan array binding signal (z-score)", "setting": "[22]", "value": -0.108}, {"measurement": "glycan array binding signal (z-score)", "setting": "[23]", "value": -0.213}]}]}
